Reference: PubChem BioAssay AID463173 (ICCB-Longwood Screening Facility, Harvard Medical School, 2010)
The whole screen tested about 52,000 compounds, of which about 1,700 (3.3%) were called active. Rule as the data show it: active = survival mostly below about 52% (no sharp cut-off); inactive = mostly above about 56%. This is one part of the list.

system: Wild type; assay: growth inhibition of S. aureus wild type versus tarO mutant, primary screen, teichoic acid synthesis inhibitors, RN4220, OD600 (AID 463173); conditions: S. aureus RN4220 wild type/DeltatarO growth, OD600, 18 h, stronger effect = lower value, screened at 18.75 µg/mL (by protocol)

SMILES	survival
CCCS(=O)(=O)N1CCCC(C(=O)NCCCOC)C1 (stereo unspecified)	inactive: 73%
Cc1ccccc1CNC(=O)C(=O)NCC(c1ccco1)S(=O)(=O)c1ccccc1 (stereo unspecified)	inactive: 76%
COc1ccc(C(=O)Nc2nnc(S(=O)(=O)N(C)c3ccc(Cl)cc3)s2)cc1OC	inactive: 78%
COC(=O)C1=NNC2C(=O)N(C3CCCCC3)C(=O)C12 (stereo unspecified)	inactive: 111%
Cc1ccc2[nH]c(CSc3nnc(NC(=O)c4ccccc4C)s3)cc(=O)c2c1	inactive: 72%
O=C1CCCN1c1ccc(S(=O)(=O)NCCOc2ccccc2Cl)cc1	inactive: 105%
CCc1cccc(NC(=O)CCS(=O)(=O)c2cc(Br)cc3c2N(C(C)=O)CC3)c1	inactive: 137%
COc1cc(OC)cc(C(=O)Nc2ccc3c(c2)N(C2CCCC2)C(=O)c2ccccc2S3)c1	inactive: 123%
O=C(NCc1ccccc1Cl)c1cc2ccccc2o1	inactive: 31%
O=C(CSc1nc2ccccc2nc1Cc1ccccc1)N1CCCCC1	inactive: 92%
COc1cc(-c2nc3ncccn3c2Nc2ccc(C)cc2C)ccc1O	inactive: 132%
CCOc1ccccc1NC(=O)N1CCN(Cc2nc3ccc(C)cc3o2)CC1	inactive: 64%
Cc1ccc(C)c(N2CCN(S(=O)(=O)c3c(C)nc4sccn4c3=O)CC2)c1	inactive: 86%
CCOc1ccc(-c2nnc(SCC(=O)NCc3ccccc3)nc2-c2ccc(OCC)c(OC)c2)cc1OC	inactive: 77%
CCc1ccc(C2CC(=O)Nc3c2c(C)nn3-c2nc(C)cc(C)n2)cc1 (stereo unspecified)	inactive: 92%
CCCCOc1cccc(C(=O)Nc2ccc3oc(-c4cccnc4)nc3c2)c1	inactive: 72%
Cc1cc(C)cc(-n2c(SCC(N)=O)nc3c(oc4ccccc43)c2=O)c1	inactive: 74%
COc1cccc(Nc2c3c(nc4nncn24)CCC3)c1	inactive: 84%
CCOc1ccccc1NC(=O)Cn1cnc2sc(C)c(S(=O)(=O)N3CCC(C)CC3)c2c1=O	inactive: 86%

SMILES	survival
C/C=C/C(=O)Oc1ccc(Cl)cc1	inactive: 105%
O=C(O)C1CC=CCC1C(=O)NCCc1ccccc1 (stereo unspecified)	inactive: 106%
O=C(Cc1cccs1)Nn1c(Cc2cccs2)nc2ccccc2c1=O	inactive: 95%
Cc1cccc(C)c1Nc1sc(C(=O)c2ccccc2)c(N)c1C(=O)Nc1ccc(F)cc1	inactive: 71%
COc1cccc(-c2ccc3c(N)c(C(=O)c4ccc(Cl)cc4)sc3n2)c1	inactive: 39%
CCc1cccc(NC(=O)Cn2nc(-c3ccc(OC)cc3)ccc2=O)c1	inactive: 59%
CCOc1ccccc1NC(=O)Cn1c(=O)n(Cc2ccccc2)c(=O)c2c(C)c(C)sc21	inactive: 92%
CCOC(=O)c1ccc(N2C(=O)c3n[nH]c(-c4cccs4)c3C2c2ccc(C(C)(C)C)cc2)cc1 (stereo unspecified)	inactive: 88%
O=C(Nc1nc2n(n1)C(c1ccccc1)C=C(c1ccccc1)N2)c1ccc(Cl)c([N+](=O)[O-])c1 (stereo unspecified)	inactive: 88%
Cc1ccc(NC(=O)c2c(C)oc3ccc(O)c(CN4CCCCCC4)c23)c(C)c1	inactive: 96%
CCOC(=O)c1[nH]c(C)c(CCC(=O)NCc2ccc(OCC)cc2)c1C	inactive: 78%
COc1ccc(S(=O)(=O)N(Cc2cc3c(C)cc(C)cc3[nH]c2=O)CC2COCCO2)cc1 (stereo unspecified)	inactive: 111%
COc1cc(NC(=O)C2CCCN(S(=O)(=O)c3ccc4c(c3)oc(=O)n4C)C2)c(C(=O)O)cc1OC (stereo unspecified)	inactive: 91%
O=C(Nc1ccc2c(c1)Cc1ccccc1-2)c1ccc(Br)o1	inactive: 118%
CCCCC(Sc1nc2cc3c(cc2c(=O)n1CCCC(=O)NCc1ccc(OC)cc1)OCO3)C(=O)OCC (stereo unspecified)	inactive: 112%
CC(C)OCCCNC(=O)c1cc2c(-c3ccc(Cl)cc3)nn(C)c2s1	inactive: 128%
COc1ccc2c(C)c(CC(=O)NCc3ccc(C)cc3)c(=O)oc2c1OC	inactive: 117%
CCc1ccc(NC(=O)C(=O)NCCc2csc(-c3ccc(C(F)(F)F)cc3)n2)cc1	inactive: 124%
CC1=C(C#N)C(c2cccc(O)c2)C2=C(CC(c3ccccc3)CC2=O)N1 (stereo unspecified)	inactive: 113%

SMILES	survival
Cc1cc(C)c(NC(=O)Cn2c(=O)n(Cc3ccc4c(c3)OCO4)c(=O)c3ccc(C(=O)NC4CCCCC4)cc32)c(C)c1	inactive: 81%
Cc1ccc(NCc2nnc(SCC(=O)O)n2-c2cccc(Cl)c2)cc1	inactive: 109%
O=C(NCc1ccccc1F)c1ccc(CN2CC(=O)N3CCCCC3C2=O)cc1 (stereo unspecified)	inactive: 80%
N#C/C(=C\c1ccc(Cl)cc1)c1nc(-c2cc3ccccc3oc2=O)cs1	inactive: 76%
COc1cccc(C(=O)N2c3cc(C)ccc3C(C)(c3ccccc3)CC2(C)C)c1 (stereo unspecified)	active: 1%
O=C(CN(CC1CCCO1)S(=O)(=O)c1ccc(S(=O)(=O)N2CCOCC2)cc1)Nc1ccccc1 (stereo unspecified)	inactive: 99%
CCOC(=O)c1c(-c2ccccc2)oc2cc(CN(C)C)c(O)c(CN(C)C)c12	inactive: 109%
CCc1ccc(CNC(=O)c2cnc3sc4cc(OC)ccc4n3c2=O)cc1	inactive: 83%
CCCn1c2ccccc2c2cnn(CC(=O)N3CCC(C)CC3)c(=O)c21	inactive: 67%
CCOC(=O)c1sc2cccc(F)c2c1S(=O)(=O)N1CCN(c2cccc(Cl)c2)CC1	inactive: 99%
CCC1/C(=N\O)CC(c2ccco2)NC1c1ccco1 (stereo unspecified)	inactive: 121%
COc1ccc(Nc2ncc3c(n2)CCN(Cc2cc(Br)cs2)C3)c(OC)c1	inactive: 70%
CN1CCN(C(=O)/C(=C/c2ccc(N(C)C)cc2)NC(=O)c2ccccc2)CC1	inactive: 97%
CCCCOc1ccccc1C(=O)N(Cc1ccc(C)o1)C1CCS(=O)(=O)C1 (stereo unspecified)	inactive: 93%
Cc1ccc(NC(=O)CSc2nc3c(oc4ccccc43)c(=O)n2-c2ccc(F)cc2)c(C)c1	inactive: 88%
O=C(O)CSc1c2c(nc3cc(C(=O)Nc4ccc(F)c(Cl)c4)ccc13)CCC2	inactive: 77%
COc1ccccc1NC(=O)c1cc2c(=O)oc3ccc(C)cc3c2s1	inactive: 84%
CCOC(=O)c1ccc(N2CCN(c3cc(C)ccc3C)CC2)c(NC(=O)Nc2ccccc2)c1	inactive: 55%
